Data on 115 sequences can be found in the BET-seq Pho4 binding data (Le et al. 2018).

This is one part of the list. The energies were worked out here from pooled read counts, against the library average; single values are noisy.

This assay addresses T1, Pho4 (S. cerevisiae) (UniProt P07270).
T1 sequence: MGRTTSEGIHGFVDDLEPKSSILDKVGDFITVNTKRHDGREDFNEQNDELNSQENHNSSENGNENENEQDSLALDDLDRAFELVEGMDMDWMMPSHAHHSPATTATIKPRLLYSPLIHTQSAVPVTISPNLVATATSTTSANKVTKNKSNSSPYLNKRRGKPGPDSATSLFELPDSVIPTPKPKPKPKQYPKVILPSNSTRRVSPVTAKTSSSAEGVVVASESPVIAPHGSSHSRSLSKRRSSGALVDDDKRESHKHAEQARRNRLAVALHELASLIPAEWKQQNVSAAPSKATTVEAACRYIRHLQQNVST
The experiment in a line: relative binding free energy (BET-seq); higher = weaker binding. The settings on record: reference: library average.
Consider GAGATCACGTGATTGT, for which the “relative binding free energy” value was 0.3 kcal/mol. Take TGTATCACGTGGCGGT: the “relative binding free energy” value amounted to 0.09 kcal/mol. As for CGATTCACGTGGGGCT, the “relative binding free energy” value worked out at 0.07 kcal/mol.

For TAATTCACGTGTGAGA, the “relative binding free energy” value was determined as 0.36 kcal/mol.

On to GGAAACACGTGTGGCT, for which the “relative binding free energy” value came out at 0.2 kcal/mol. As for GCTGGCACGTGGTAGT, the figure is -0.11 kcal/mol; as for ATGGGCACGTGTCGTC, -0.12 kcal/mol. Then GCTAGCACGTGTAAGT, with 0.18 kcal/mol; and CTAAGCACGTGTGTAG, with -0.1 kcal/mol; and GGTGCCACGTGTTCGG, with -0.11 kcal/mol.

Turning to TACTTCACGTGGAGTT, the “relative binding free energy” value amounted to 0.37 kcal/mol. Then TGAGACACGTGATGTA, with 0.22 kcal/mol; and TTGGGCACGTGCGATA, with -0.07 kcal/mol. As for TTTGCCACGTGAGATG, the figure is 0.16 kcal/mol. As for TTTGGCACGTGCCAGT, the figure is -0.23 kcal/mol; as for TGGCGCACGTGTGGTA, 0 kcal/mol. Turning to AGCGACACGTGTGTTT, the “relative binding free energy” value turned out to be 0.04 kcal/mol. As for CGAATCACGTGAGGGT, the figure is 0.29 kcal/mol. With TGGATCACGTGTGCTT, the “relative binding free energy” value came to 0.22 kcal/mol.

With TTCATCACGTGTAATG, the “relative binding free energy” value was found to be 0.19 kcal/mol. As for TTTTTCACGTGAATTA, the figure is 0.35 kcal/mol. As for GGTGGCACGTGAAACG, the figure is 0.23 kcal/mol. As for AGGTGCACGTGTTGGC, the figure is 0.12 kcal/mol; as for AGTTTCACGTGCATTG, 0.17 kcal/mol; as for TGTAACACGTGGAATA, 0.09 kcal/mol. For the sequence TGTGTCACGTGTCGCT, the “relative binding free energy” value worked out at 0 kcal/mol. Then TTTCCCACGTGTGGTT, with -0.01 kcal/mol; and TCGTCCACGTGTTAGG, with 0.05 kcal/mol; and GTTACCACGTGGGTTG, with -0.18 kcal/mol. Then AGGAACACGTGATCGG, with 0.23 kcal/mol; and TAATGCACGTGATGAA, with 0.09 kcal/mol; and GGTATCACGTGTTTAC, with 0.24 kcal/mol. As for GTTGGCACGTGCCTGG, the figure is -0.05 kcal/mol; as for ATGCGCACGTGATATT, 0.04 kcal/mol. GTTTACACGTGTTGCC: the “relative binding free energy” value turned out to be 0.32 kcal/mol.

For the sequence TGAATCACGTGATTGT, the “relative binding free energy” value came to 0.31 kcal/mol. On to AGTTTCACGTGGACGT, for which the “relative binding free energy” value turned out to be 0.32 kcal/mol. As to TTAGGCACGTGCGTTT, the “relative binding free energy” value is -0.11 kcal/mol.

Consider TCTGGCACGTGGAATG, for which the “relative binding free energy” value is 0.03 kcal/mol. As for GAGGTCACGTGTATTG, the figure is 0.26 kcal/mol; as for TTCTTCACGTGCGGAT, 0.29 kcal/mol; as for TATATCACGTGGTCAT, 0.13 kcal/mol. As for GAACGCACGTGTGTTG, the figure is -0.08 kcal/mol; as for TGAGCCACGTGGTGTT, -0.21 kcal/mol. As for TTGATCACGTGCGTTT, the figure is 0.18 kcal/mol; as for GCTAGCACGTGTTGTG, -0.14 kcal/mol; as for TCGTGCACGTGGGCGA, -0.15 kcal/mol. As for TAGGGCACGTGTCTAG, the “relative binding free energy” value is -0.09 kcal/mol. As for TTAATCACGTGGCAGT, the figure is 0.02 kcal/mol; as for AGTTCCACGTGATGGG, 0.16 kcal/mol; as for GATAGCACGTGGTGAT, -0.02 kcal/mol.

GGCTTCACGTGTTAAT: the “relative binding free energy” value was 0.43 kcal/mol. For the sequence GTGGGCACGTGCAACG, the “relative binding free energy” value was -0.02 kcal/mol. As for TAGTACACGTGTCTGT, the figure is 0.07 kcal/mol; as for TTAGGCACGTGAAGTG, 0.09 kcal/mol. As for GTAGTCACGTGAGAGA, the figure is 0.22 kcal/mol. As for ATTGGCACGTGTTAGT, the figure is -0.13 kcal/mol. Turning to AGCGGCACGTGTATTG, the “relative binding free energy” value is -0.07 kcal/mol. As for ACTTGCACGTGCTGGG, the figure is -0.13 kcal/mol. For the sequence TACGGCACGTGGTCTG, the “relative binding free energy” value was -0.11 kcal/mol. As for CATCGCACGTGGGTGG, the figure is -0.28 kcal/mol; as for TGGGACACGTGGTAGG, -0.02 kcal/mol; as for TTATGCACGTGATAGT, -0.03 kcal/mol. Then TCAGGCACGTGGGGGT, with -0.11 kcal/mol; and TTGAACACGTGCTATT, with 0.09 kcal/mol; and TGATGCACGTGGTAGG, with -0.1 kcal/mol. Then TATTTCACGTGTGTCA, with 0.17 kcal/mol; and TGGGACACGTGCTAGG, with -0.01 kcal/mol. In the case of GATTGCACGTGTTGGT, the “relative binding free energy” value was 0.06 kcal/mol.

In the case of TGCGTCACGTGGGTTC, the “relative binding free energy” value is -0.08 kcal/mol. Then TGCGTCACGTGCCGGG, with 0.06 kcal/mol; and TGTAGCACGTGGGATG, with -0.12 kcal/mol. In the case of AGAGGCACGTGGAAGT, the “relative binding free energy” value was -0.01 kcal/mol. Then TTTCTCACGTGTCGTG, with 0.25 kcal/mol; and AGGTACACGTGTTGGG, with 0.11 kcal/mol. Then GTTCTCACGTGTTCGG, with 0.29 kcal/mol; and CGCTTCACGTGGAGGT, with 0.22 kcal/mol.

Consider TGGCTCACGTGGCTGG, for which the “relative binding free energy” value was 0.12 kcal/mol. As for CTCGTCACGTGTTTTG, the figure is 0.09 kcal/mol; as for GGATGCACGTGTAGAT, 0.21 kcal/mol. Then TGAATCACGTGAATTT, with 0.33 kcal/mol. As for GGAAGCACGTGGTAGG, the figure is -0.23 kcal/mol; as for GCTGTCACGTGAGGGA, 0.41 kcal/mol.

TGAAACACGTGTTGAT: the “relative binding free energy” value amounted to 0.01 kcal/mol. As for TAGTTCACGTGTCAGA, the figure is 0.42 kcal/mol; as for ACGTTCACGTGTGTGT, 0.18 kcal/mol. As for TTGTTCACGTGCCGTT, the figure is 0.12 kcal/mol. With GTGTTCACGTGGGCAA, the “relative binding free energy” value came out at 0.16 kcal/mol. For ATTTGCACGTGTTGAT, the “relative binding free energy” value is 0.17 kcal/mol.

For GGATACACGTGGAGGT, the “relative binding free energy” value stood at 0.02 kcal/mol. As for CTAGTCACGTGGTGAA, the “relative binding free energy” value turned out to be 0.02 kcal/mol. As for AGTATCACGTGCGGTT, the figure is 0.23 kcal/mol; as for TAGTACACGTGAGCGT, 0.16 kcal/mol; as for TTAATCACGTGTGGGT, 0.25 kcal/mol. Then GCGGTCACGTGTTTAT, with 0.19 kcal/mol; and GGTTACACGTGGTTAT, with 0.14 kcal/mol; and TTTATCACGTGAATAT, with 0.41 kcal/mol.

Regarding AATAGCACGTGGCGTG, the “relative binding free energy” value was -0.04 kcal/mol. As for ATGTGCACGTGGGGAC, the figure is -0.13 kcal/mol. As for AGTAGCACGTGTAATT, the figure is -0.02 kcal/mol. Then TCATTCACGTGTTTTT, with 0.31 kcal/mol; and AGAGTCACGTGTGTAC, with 0.13 kcal/mol.

With AGTGACACGTGTTGTC, the “relative binding free energy” value is -0.03 kcal/mol. Then TTTAGCACGTGCGCTT, with -0.09 kcal/mol; and TGGTTCACGTGGAGAA, with 0.24 kcal/mol.

As to GTGTTCACGTGGTGGC, the “relative binding free energy” value was 0.28 kcal/mol. Then TATTCCACGTGGGGGA, with -0.01 kcal/mol; and CGAATCACGTGGGTGT, with -0.12 kcal/mol; and TTAGACACGTGTTTAA, with -0.07 kcal/mol. As for ATTTACACGTGAGCTT, the figure is 0.35 kcal/mol; as for TCATTCACGTGATTGT, 0.3 kcal/mol; as for AAGGTCACGTGTTGGC, 0.05 kcal/mol. As for AACTTCACGTGATGGG, the figure is 0.22 kcal/mol; as for CTAGACACGTGGTGAT, 0 kcal/mol.

On to GGTTACACGTGAAGGT, for which the “relative binding free energy” value is 0.39 kcal/mol.
